# Measured values reported in the antibiotic and cytotoxicity screens of Wong et al. (2023).
# Some of the results follow.
# Tests used:
# HSkMC = human skeletal muscle cells; test: cytotoxicity call (relative viability < 0.9); settings: 10 µM
# HepG2 = test: cytotoxicity call (relative viability < 0.9); settings: 10 µM
# S. aureus RN4220 = test: growth inhibition call (relative growth <= 0.2); settings: 50 µM
Compound,cytotoxicity call (HSkMC),cytotoxicity call (HepG2),growth inhibition call (S. aureus RN4220)
Cc1noc(C)c1S(=O)(=O)Nc1ccc2c(c1)C(=O)N([C@H](C)CO)C[C@H](C)[C@H](CN(C)Cc1ccc(C(F)(F)F)cc1)OCCCC[C@H](C)O2,inactive,inactive,inactive
COc1ccc(S(=O)(=O)Nc2ccc3c(c2)C(=O)N([C@H](C)CO)C[C@H](C)[C@H](CN(C)Cc2ccc(Cl)c(Cl)c2)OCCCC[C@H](C)O3)cc1,active,inactive,inactive
Cn1cnc(S(=O)(=O)N[C@@H]2CC[C@H](CC(=O)N3CCN(c4ccccc4)CC3)O[C@@H]2CO)c1,inactive,inactive,inactive
CCCNC(C)(C)COC(=O)c1ccccc1.Cl,inactive,inactive,inactive
C[C@@H]1CN([C@@H](C)CO)C(=O)c2cc(NC(=O)CCN3CCOCC3)ccc2O[C@H]1CN(C)Cc1ccccc1,inactive,inactive,inactive
C[C@@H]1CCCCO[C@H](CN(C)S(=O)(=O)c2ccc(Cl)cc2)[C@@H](C)CN([C@H](C)CO)C(=O)c2cc(NS(=O)(=O)c3ccccc3)ccc2O1,inactive,inactive,inactive
CO[C@@H]1CN(C)C(=O)c2cc(NS(=O)(=O)c3ccccc3)ccc2OC[C@@H](C)N(C(=O)NC(C)C)C[C@H]1C,inactive,inactive,inactive
CC(C)OC(=O)[C@H](C)N[P@](=O)(OC[C@H]1O[C@@H](n2ccc(=O)[nH]c2=O)[C@](C)(Cl)[C@@H]1O)Oc1ccccc1,inactive,inactive,inactive
CC(C)(C)Oc1ccc(O)cc1,inactive,inactive,inactive
O=S(=O)(NCC[C@@H]1CC[C@@H](NS(=O)(=O)c2cccc(Cl)c2)[C@H](CO)O1)c1cccc(F)c1,inactive,inactive,inactive
COc1ccc(cc1)NC(=O)N1CC[C@]2(CC1)CN([C@H](CO)c1[nH]c3cc(ccc3c12)OC)C(=O)CN1CCOCC1,inactive,inactive,inactive
C[C@@H]1CN([C@H](C)CO)C(=O)c2cc(NC(=O)Nc3ccc(F)cc3)ccc2O[C@H]1CN(C)Cc1ccc(C(F)(F)F)cc1,active,active,inactive
C[C@H](CO)N1C[C@H](C)[C@H](CN(C)C(=O)CCCN(C)C)OCc2cn(nn2)CCCC1=O,inactive,inactive,inactive
C[C@H]1CN([C@@H](C)CO)C(=O)Cc2cc(NS(=O)(=O)c3cn(C)cn3)ccc2O[C@@H]1CN(C)S(C)(=O)=O,inactive,inactive,inactive
C[C@H](CO)N1C[C@H](C)[C@H](CN(C)Cc2ccc(C(=O)Nc3ccccc3N)cc2)Oc2ccc(NC(=O)Cc3ccccc3)cc2C1=O,inactive,inactive,inactive
CC[C@@H](C)C(=O)O[C@H]1[C@H](OC(=O)CC(C)C)O[C@H](CO)[C@@H](O)[C@@H]1O,inactive,inactive,inactive
CC(C)NC(=O)N(C)C[C@@H]1Oc2ccc(NC(=O)CCN3CCOCC3)cc2C(=O)N([C@@H](C)CO)C[C@@H]1C,inactive,inactive,inactive
COc1ccc(S(=O)(=O)Nc2ccc3c(c2)CC(=O)N([C@@H](C)CO)C[C@@H](C)[C@@H](CN(C)S(=O)(=O)c2c(C)noc2C)O3)cc1,inactive,inactive,inactive
C[C@@H]1CCCCO[C@@H](CN(C)C(=O)Cc2ccccc2)[C@@H](C)CN([C@H](C)CO)C(=O)c2cc(NC(=O)NC3CCCCC3)ccc2O1,inactive,inactive,inactive
C[C@@H]1CCCCO[C@H](CN(C)Cc2ccccc2)[C@H](C)CN([C@H](C)CO)C(=O)c2cc(NC(=O)c3ccncc3)ccc2O1,inactive,inactive,inactive
N=C(N)NCCC[C@@H](NC(=O)[C@@H]1CCCN1C(=O)[C@H]1CSSCCC(=O)N[C@@H](Cc2ccc(O)cc2)C(=O)N[C@@H](Cc2ccccc2)C(=O)N[C@@H](CCC(N)=O)C(=O)N[C@@H](CC(N)=O)C(=O)N1)C(=O)NCC(N)=O,inactive,inactive,inactive
C[C@H](CO)N1C[C@H](C)[C@@H](CN(C)C(=O)Nc2ccc3c(c2)OCO3)Oc2ccc(NC(=O)c3ccncc3)cc2CC1=O,inactive,inactive,inactive
CNC[C@H]1Oc2cc(C#CCN(C)C)ccc2S(=O)(=O)N([C@H](C)CO)C[C@H]1C,inactive,inactive,inactive
Cc1ccc(S(=O)(=O)N(C)C[C@H]2Oc3ccc(NC(=O)c4ccncc4)cc3C(=O)N([C@@H](C)CO)C[C@H]2C)cc1,inactive,inactive,inactive
C[C@@H]1CN([C@@H](C)CO)C(=O)c2cc(NC(=O)NC3CCCCC3)ccc2O[C@@H](C)CCCCO[C@H]1CN(C)C(=O)C1CCCCC1,inactive,active,inactive
C[C@@H]1CN([C@@H](C)CO)S(=O)(=O)c2ccc(C#Cc3cccc(F)c3)cc2O[C@@H]1CN(C)S(=O)(=O)c1cn(C)cn1,inactive,inactive,inactive
O=C(CCCCCCC(=O)N/N=C/[C@H](O)[C@@H](O)[C@H](O)[C@H](O)CO[C@H]1O[C@H](CO)[C@H](O)[C@H](O)[C@H]1O)NO,inactive,inactive,inactive
O=C(CCCCCC(=O)Nc1ccccc1O)N/N=C/C[P+](c1ccccc1)(c1ccccc1)c1ccccc1,inactive,inactive,inactive

Compound,cytotoxicity call (HSkMC),cytotoxicity call (HepG2),growth inhibition call (S. aureus RN4220)
CN(C)CC(=O)N[C@@H]1CC[C@@H](CC(=O)NCCN2CCCCC2)O[C@@H]1CO,inactive,inactive,inactive
C[C@H](CO)N1C[C@H](C)[C@H](CN(C)C(=O)c2cccnc2)Oc2cc(-c3cccc(C#N)c3)ccc2S1(=O)=O,inactive,inactive,inactive
O=C(C[C@@H]1CC[C@H](NC(=O)c2cnccn2)[C@H](CO)O1)NCc1ccccc1F,inactive,inactive,inactive
C[C@@H]1O[C@@H](O[C@H]2C(=O)c3c(O)cc(O)cc3O[C@@H]2c2ccc(O)c(O)c2)[C@H](O)[C@H](O)[C@H]1O,inactive,inactive,inactive
COc1ccc(S(=O)(=O)N(C)C[C@@H]2OCCCC[C@@H](C)Oc3ccc(NS(C)(=O)=O)cc3C(=O)N([C@H](C)CO)C[C@@H]2C)cc1,inactive,inactive,inactive
C=C1C(=O)O[C@@H]2[C@H]3C(=CO[C@@H]4O[C@H](CO)[C@@H](O)[C@H](O)[C@H]4O)CC(=O)C3=C(C)CC[C@@H]12,inactive,inactive,inactive
C[C@@H]1CN([C@H](C)CO)C(=O)CCCn2nncc2CO[C@H]1CN(C)C(=O)Nc1ccc2c(c1)OCO2,inactive,inactive,inactive
N[C@H](C(=O)O)[C@@H](O)C(=O)O,inactive,inactive,inactive
Cc1ccc(S[C@]2(C(=O)NC(C)C)CC(=O)N(C3CCCCC3)[C@@H]2c2ccc(CO)cc2I)cc1,inactive,inactive,inactive
COc1cccc(NC(=O)N[C@H]2C=C[C@@H](CC(=O)N3CCN(C)CC3)O[C@@H]2CO)c1,inactive,inactive,inactive
Cn1nnc2cc(NC(=O)NCCO)ccc21,inactive,inactive,inactive
C[C@H]1CCCN(C(=O)N2c3ccccc3Sc3ccccc32)C1,inactive,inactive,inactive
COc1ccccc1S(=O)(=O)N[C@H]1CC[C@H](CCNC(=O)C2CCOCC2)O[C@H]1CO,inactive,inactive,inactive
C[C@@H]1CN([C@H](C)CO)C(=O)c2cc(NS(C)(=O)=O)ccc2O[C@@H](C)CCCCO[C@@H]1CN(C)Cc1ccc(C(F)(F)F)cc1,inactive,inactive,inactive
NCCCn1ccnc1,inactive,inactive,inactive
CCOC(=O)N(C)C[C@H]1OCc2cn(nn2)CCCC(=O)N([C@H](C)CO)C[C@H]1C,inactive,inactive,inactive
COc1ccc(S(=O)(=O)Nc2ccc3c(c2)C(=O)N([C@H](C)CO)C[C@@H](C)[C@H](CN(C)S(=O)(=O)c2ccccc2)O3)cc1,inactive,inactive,inactive
CC(C)NC(=O)N(C)C[C@@H]1OCc2cnnn2CCCC(=O)N([C@@H](C)CO)C[C@H]1C,inactive,inactive,inactive
Cc1noc(C)c1S(=O)(=O)N(C)C[C@H]1Oc2ccc(NS(=O)(=O)c3cn(C)cn3)cc2CC(=O)N([C@@H](C)CO)C[C@H]1C,inactive,inactive,inactive
Cc1ccc(S(=O)(=O)Nc2ccc3c(c2)CC(=O)N([C@@H](C)CO)C[C@@H](C)[C@H](CN(C)Cc2ccncc2)O3)cc1,inactive,inactive,inactive
O=C(NO)c1ccc(C(=O)N/N=C/[C@H](O)[C@H](O)[C@@H](O)[C@@H](O)CO)cc1,inactive,inactive,inactive
C[C@H]1CN([C@@H](C)CO)C(=O)Cc2cc(NC(=O)Nc3ccc(C(F)(F)F)cc3)ccc2O[C@@H]1CN(C)Cc1ccc(C(F)(F)F)cc1,active,inactive,inactive
Cc1ccc(S(=O)(=O)N(C)C[C@@H]2Oc3c(NC(=O)NC(C)C)cccc3C(=O)N([C@@H](C)CO)C[C@@H]2C)cc1,inactive,inactive,inactive
C[C@@H]1CN([C@H](C)CO)C(=O)Cc2cc(NC(=O)CCCCCC(=O)Nc3ccccc3N)ccc2O[C@@H]1CN(C)Cc1ccccc1,inactive,inactive,inactive
Cc1cc(C(=O)Nc2cccc3c2O[C@H](CN(C)Cc2ccncc2)[C@@H](C)CN([C@H](C)CO)C3=O)n(C)n1,inactive,inactive,inactive
Cc1ccc(S(=O)(=O)N(C)C[C@@H]2Oc3ncc(C#CC4(O)CCCC4)cc3C(=O)N([C@@H](C)CO)C[C@@H]2C)cc1,inactive,inactive,inactive
C[C@@H]1CN([C@H](C)CO)C(=O)c2cc(NC(=O)CCC(F)(F)F)ccc2O[C@H]1CN(C)C(=O)Nc1ccc(C(F)(F)F)cc1,inactive,inactive,inactive
